Source: a compilation of properties of binary mixtures (doi:10.1021/acs.jced.9b00364)
Some of these densities may be calculated back from excess volumes.

Test: xn = mol fraction of the nth substance listed
Details: 100 kPa

CNCCO + CCCCOCCO
mass density [kg/m3]
Details | x1 = 0.1488 | x1 = 0.4027 | x1 = 0.5119 | x1 = 0.6114 | x1 = 0.7859 | x1 = 0.934 | x1 = 1
293.15 K | 905 | 913.6 | 917.5 | 921.4 | 929.2 | 936.8 | 940.1
298.15 K | 900.9 | 909.5 | 913.6 | 917.5 | 925.2 | 932.9 | 936.2
303.15 K | – | 905.5 | 909.5 | 913.5 | 921.3 | 929 | 932.3
308.15 K | 892.6 | 901.4 | 905.5 | 909.4 | – | 925 | 928.4
313.15 K | – | 897.3 | 901.4 | 905.4 | 913.3 | 921.1 | 924.5
318.15 K | 884.2 | 893.1 | 897.3 | – | – | 917.1 | –
323.15 K | 880 | – | 893.2 | – | 905.3 | – | 916.5
328.15 K | 875.7 | 884.8 | 889 | 893.1 | 901.2 | 909.1 | –
333.15 K | – | 880.6 | 884.8 | 889 | 897.1 | 905 | 908.5
338.15 K | 867 | 876.3 | 880.6 | 884.8 | 892.9 | 900.9 | 904.4
343.15 K | 862.6 | 872 | – | 880.5 | 888.8 | 896.8 | 900.3
348.15 K | 858.2 | 867.6 | – | 876.3 | 884.6 | – | 896.2
353.15 K | 853.7 | 863.3 | 867.7 | – | 880.3 | 888.5 | –

CNCCO + CCOCCO
mass density [kg/m3]
Details | x1 = 0.1176 | x1 = 0.3396 | x1 = 0.4444 | x1 = 0.5454 | x1 = 0.7368 | x1 = 0.9152 | x1 = 1
293.15 K | 931.6 | 934.8 | 936 | – | 938.8 | 940.1 | 940.1
298.15 K | 927.2 | – | 931.8 | 932.9 | 934.8 | 936.2 | –
303.15 K | 922.7 | 926.2 | 927.6 | 928.8 | – | 932.2 | 932.3
308.15 K | – | 921.9 | 923.3 | 924.6 | 926.7 | 928.2 | 928.4
313.15 K | – | 917.6 | 919.1 | 920.4 | 922.6 | – | –
318.15 K | 909.2 | – | 914.7 | – | 918.5 | 920.3 | 920.5
323.15 K | 904.6 | – | 910.4 | – | 914.3 | 916.2 | –
328.15 K | – | 904.3 | 906 | 907.5 | – | 912.2 | 912.5
333.15 K | 895.3 | 899.8 | 901.6 | 903.2 | 905.9 | 908.1 | 908.5
338.15 K | 890.5 | – | 897.1 | 898.8 | 901.7 | 904 | 904.4
343.15 K | 885.8 | 890.7 | 892.6 | 894.4 | 897.4 | 899.8 | 900.3
348.15 K | 881 | – | 888.1 | 889.9 | 893.1 | – | –
353.15 K | 876.1 | 881.4 | 883.5 | – | – | 891.4 | 892.1

CCCCOCCO + CNCCO
x2 = 0
Details | mass density [kg/m3]
293.15 K | 900.4
298.15 K | 896.2
303.15 K | 892
308.15 K | 887.8
323.15 K | 874.9
328.15 K | 870.6
333.15 K | 866.2
338.15 K | 861.8
343.15 K | 857.3

CCOCCO + CNCCO
x2 = 0
Details | mass density [kg/m3]
293.15 K | 929.5
298.15 K | 925
303.15 K | 920.5
318.15 K | 906.6
323.15 K | 901.9
328.15 K | 897.2
333.15 K | 892.4
343.15 K | 882.7

COCCO + CNCCO
x2 = 0
Details | mass density [kg/m3]
293.15 K | 962.4
313.15 K | 946.2
318.15 K | 941.5
323.15 K | 936.8
328.15 K | 932
338.15 K | 922.4
348.15 K | 912.5
353.15 K | 907.5

CNCCO + COCCO
mass density [kg/m3]
Details | x1 = 0.1012 | x1 = 0.3027 | x1 = 0.4031 | x1 = 0.5033 | x1 = 0.7027 | x1 = 0.9012 | x1 = 1
293.15 K | – | 957.8 | 955 | 952.4 | 947 | 941.2 | 938.2
303.15 K | 954.2 | – | 948.6 | 946.1 | 940.9 | 935.3 | 932.3
308.15 K | 949.7 | 946.9 | 944.3 | 941.9 | 936.9 | 931.3 | 928.4
313.15 K | – | 942.5 | 940 | 937.7 | 932.7 | 927.3 | 924.5
318.15 K | – | 938.1 | 935.7 | 933.4 | – | 923.3 | 920.5
323.15 K | 935.8 | 933.6 | 931.3 | 929.1 | 924.4 | 919.3 | 916.5
328.15 K | 931.2 | 929.1 | 926.8 | 924.7 | 920.2 | 915.2 | 912.5
333.15 K | 926.4 | 924.6 | 922.4 | 920.3 | 916 | 911.1 | 908.5
338.15 K | 921.7 | 920 | 917.9 | 915.9 | – | 907 | 904.4
343.15 K | 916.9 | 915.4 | – | 911.4 | 907.4 | 902.8 | 900.3
348.15 K | – | – | 908.7 | 906.9 | 903.1 | 898.6 | 896.2
353.15 K | 907.1 | 906 | 904.1 | 902.4 | – | 894.4 | –
